Data from PubChem BioAssay (Tox21).
“And” between values parts separate entries of the source, which are not always exact repeats. Equal values may be shown once. The shares of active, inactive and inconclusive entries below differ from those in the screen. For some assays here: Potencies beside an inconclusive call are fits to weak or partial responses and may not hold up. The source made the active and inactive calls. Unless noted, calls come from the whole dose curve; as a rule, active = well fitted curve in the direction sought with a large enough effect in the repeat runs; inconclusive = weak or mixed curves; inactive = no such curve, though single readings can be large; an effect the other way counts as inactive or inconclusive.

Key:
[1] = qHTS assay to identify small molecule antagonists of the peroxisome proliferator-activated receptor gamma (PPARg) signaling pathway - cell viability counter screen (AID 743194); details: PPARg-bla HEK293H viability, CellTiter-Glo luminescence, 17 h; Potency: co-treated with 50 nM rosiglitazone unless noted; activity change, negative = cytotoxicity: at 62.6 µM (top of the series), co-treated with 50 nM rosiglitazone unless noted; note: nearly all actives have a fitted effect of over 55% in size; note: potency is the fitted concentration of half-maximal effect; for activity change, negative = cytotoxicity: % is set by controls: 0 for no effect and ±100 for the full control effect
How it was run: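 Cytotoxicity counter screen in PPARg-bla HEK293H cells, same wells as reporter assay. Compounds plus 50 nM rosiglitazone (final) for 17 h at 37 C, then viability read by CellTiter-Glo luminescence.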

[2] = qHTS assay to identify small molecule agonists of the peroxisome proliferator-activated receptor delta (PPARd) signaling pathway - cell viability counter screen (AID 743211); details: PPARd-bla HEK293H viability, CellTiter-Glo luminescence, 17 h; activity change, negative = cytotoxicity: at 62.6 µM (top of the series) unless noted; note: nearly all actives have a fitted effect of over 55% in size; note: potency is the fitted concentration of half-maximal effect; for activity change, negative = cytotoxicity: % is set by controls: 0 for no effect and ±100 for the full control effect
How it was run: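 Following 5 h plating at 37 C and 5% CO2, PPARd UAS-bla HEK293H cells took up test compounds for 17 h. Viability was quantified by luminescence 30 min after CellTiter-Glo addition at room temperature.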

[3] = qHTS assay to identify small molecule antagonists of the peroxisome proliferator-activated receptor delta (PPARd) signaling pathway - cell viability counter screen (AID 743213); details: PPARd-bla HEK293H viability, CellTiter-Glo luminescence, 17 h; viability change, negative = cytotoxic: at 62 µM (top of the series) unless noted; note: potency is the fitted concentration of half-maximal effect; nearly all actives have a fitted effect of over 50% in size
How it was run: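 PPARd-bla HEK293H cells (3000/well) got compound plus 300 nM L165041 agonist for 17 h at 37 C. Viability in the same wells came from CellTiter-Glo luminescence after 30 min at room temperature.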

[4] = qHTS assay to identify small molecule agonists of the endoplasmic reticulum stress response signaling pathway (AID 1159516; active = well fitted activation curve with a large enough effect in the signal ratio in the repeat runs, not every such curve was filed as active; inconclusive = weak or mixed curves, or effect the other way; the % refers to the signal ratio; note: potency is the fitted concentration of half-maximal effect); details: ESRE-bla HeLa, ER stress beta-lactamase reporter, 5 h; activation: at 61 µM (top of the series) unless noted
How it was run: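 ER stress element reporter (bla) in HeLa. 1,500 cells/well, overnight attachment; 5 hr compound; 2 hr RT substrate; dual-emission fluorescence.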

[5] = qHTS assay for small molecule agonists of the antioxidant response element (ARE) signaling pathway - cell viability counter screen (AID 743203; calls by dose curve; note: nearly all actives have a fitted effect of over 55% in size; note: potency is the fitted concentration of half-maximal effect)
How it was run: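 Cells (ARE-bla HepG2, 2,000/well) receive DMSO-dissolved compounds after a 5 hrs rest. Plates incubate 16 hrs at 37C/5% CO2. CellTiter-Glo luminescence is then recorded after 30 min at room temperature.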

[6] = qHTS assay for small molecule activators of the heat shock response signaling pathway (AID 743210; active = well fitted activation curve with a large enough effect in the signal ratio in the repeat runs, with a control signal flat, not every such curve was filed as active; inconclusive = weak or mixed curves; the % refers to the signal ratio; note: potency is the fitted concentration of half-maximal effect); details: HeLa HSE-bla reporter, beta-lactamase ratio, 5 h; activation: at 62.6 µM (top of the series)
How it was run: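 HSE-bla HeLa cells (beta-lactamase reporter under heat shock response elements), plated overnight, then exposed to compounds 5 h at 37 C; LiveBLAzer B/G FRET substrate added, 2.5 h at room temperature, fluorescence intensity read.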

[7] = target: Peroxisome proliferator-activated receptor delta (Homo sapiens) (UniProt Q03181); experiment: qHTS assay to identify small molecule agonists of the peroxisome proliferator-activated receptor delta (PPARd) signaling pathway (AID 743212; calls by dose curve;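 note: HEK293H cells with PPARd UAS beta-lactamase reporter GeneBLAzer system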; note: potency is the fitted concentration of half-maximal effect); details: HEK293H PPARd-UAS-bla, beta-lactamase FRET ratio, 17 h; activation: at 62.6 µM (top of the series) unless noted
How it was run: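 GeneBLAzer UAS-bla HEK293H cells carrying a PPARδ construct were exposed to compounds at 37 °C. Beta-lactamase activity was read by FRET fluorescence after 2 h at room temperature with LiveBLAzer B/G substrate.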

[8] = qHTS assay to identify small molecule antagonists of the farnesoid-X-receptor (FXR) signaling pathway - cell viability counter screen (AID 743221; active = well fitted cell-killing curve with a large enough effect in the repeat runs, not every such curve was filed as active; inconclusive = weak or mixed curves, or effect the other way; inactive = no such curve, though single readings can be large or run the other way; note: % is set by controls: 0 for no effect and ±100 for the full control effect; nearly all actives have a fitted effect of over 50% in size); details: FXR-bla HEK293T viability, CellTiter-Glo luminescence, 16 h; activity change, negative = cytotoxicity: at 62.6 µM (top of the series) unless noted
How it was run: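 Compound effects on cell number were measured as CellTiter-Glo luminescence in HEK 293T cells expressing FXR-UAS-bla, after 16 h at 37 C with 50 uM CDCA (final).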

[9] = qHTS assay to identify small molecule antagonists of the vitamin D receptor (VDR) signaling pathway - cell viability counter screen (AID 743225); details: VDR-bla HEK293T viability, CellTiter-Glo luminescence, 16 h; viability change, negative = cytotoxic: at 61 µM (top of the series) unless noted; note: nearly all actives have a fitted effect of over 50% in size; note: potency is the fitted concentration of half-maximal effect; for viability change, negative = cytotoxic: % is set by controls: 0 for no effect and ±100 for the full control effect
How it was run: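 In this counter screen, VDR-bla HEK 293T cells receive test compound plus 3 nM final calcitriol for 16 h at 37C. Room-temperature steps of 2 h with the beta-lactamase substrate, then 30 min with CellTiter-Glo, precede the luminescence read.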

[10] = qHTS assay to identify small molecule agonists of the farnesoid-X-receptor (FXR) signaling pathway - cell viability counter screen (AID 743218); details: FXR-bla HEK293T viability, CellTiter-Glo luminescence, 16 h; viability change, negative = cytotoxic: at 62.6 µM (top of the series) unless noted; note: % is set by controls: 0 for no effect and ±100 for the full control effect; nearly all actives have a fitted effect of over 45% in size
How it was run: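 In GeneBLAzer FXR-UAS-bla HEK 293T cells, compounds act for 16 h at 37 C. Cell viability is then scored in the reporter wells by CellTiter-Glo, 30 min at RT, luminescence.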

[11] = target: Vitamin D3 receptor (Homo sapiens) (UniProt P11473); experiment: qHTS assay to identify small molecule antagonists of the vitamin D receptor (VDR) signaling pathway (AID 743223; active = well fitted inhibition curve with a large enough effect in the signal ratio in the repeat runs, not every such curve was filed as active; inconclusive = weak or mixed curves, or effect the other way; inactive = no such curve, though single readings can be large or run the other way; the % refers to the signal ratio; note: potency is the fitted concentration of half-maximal effect; for activity change, negative = inhibition: % is set by controls: 0 for no effect and ±100 for the full control effect); details: VDR-UAS-bla HEK293T, beta-lactamase FRET ratio, 16 h; activity change, negative = inhibition: at 61 µM (top of the series) unless noted
How it was run: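 Beta-lactamase activity in VDR-bla cells is measured by FRET substrate fluorescence (2 h, room temperature) after cells spend 16 h at 37C with test compound and 3 nM final 1alpha,25-dihydroxyvitamin D3.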

[12] = qHTS assay for small molecule agonists of the antioxidant response element (ARE) signaling pathway (AID 743202; active = well fitted activation curve with a large enough effect in the signal ratio in the repeat runs, not every such curve was filed as active; inconclusive = weak or mixed curves, or effect the other way; inactive = no such curve, though single readings can be large or run the other way; the % refers to the signal ratio; note: potency is the fitted concentration of half-maximal effect); details: HepG2 ARE-bla reporter, beta-lactamase FRET, 16 h; activation: at 73.3 µM (top of the series) unless noted
How it was run: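 ARE-bla HepG2 cells (beta-lactamase reporter under the antioxidant response element), plated 5 hours, then exposed to compounds 16 hours at 37 C. LiveBLAzer B/G FRET substrate added for 2 hours at room temperature; fluorescence intensity read.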

[13] = qHTS assay for small molecule activators of the heat shock response signaling pathway - cell viability counter screen (AID 743209); details: HSE-bla HeLa viability, CellTiter-Glo luminescence, 5 h; activity change, negative = cytotoxicity: at 62.6 µM (top of the series) unless noted; note: nearly all actives have a fitted effect of over 50% in size; note: potency is the fitted concentration of half-maximal effect
How it was run: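 Quantitative HTS format, Tox21 10K library. HeLa cells carrying an HSE-driven beta-lactamase reporter were treated 5 h at 37 C, then assessed for viability by CellTiter-Glo luminescence.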

[14] = qHTS assay to identify small molecule agonists of the vitamin D receptor (VDR) signaling pathway - cell viability counter screen (AID 743224)
How it was run: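 VDR-bla cell line, quantitative HTS format; 16 h compound incubation (37C, 5% CO2); ATP-based CellTiter-Glo luminescence measured in the reporter assay wells.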
Tags give direction and shape of the fitted curve or compound fluorescence and quenching.

Chain of UniProt P11473 (P11473 whole entry, looked up): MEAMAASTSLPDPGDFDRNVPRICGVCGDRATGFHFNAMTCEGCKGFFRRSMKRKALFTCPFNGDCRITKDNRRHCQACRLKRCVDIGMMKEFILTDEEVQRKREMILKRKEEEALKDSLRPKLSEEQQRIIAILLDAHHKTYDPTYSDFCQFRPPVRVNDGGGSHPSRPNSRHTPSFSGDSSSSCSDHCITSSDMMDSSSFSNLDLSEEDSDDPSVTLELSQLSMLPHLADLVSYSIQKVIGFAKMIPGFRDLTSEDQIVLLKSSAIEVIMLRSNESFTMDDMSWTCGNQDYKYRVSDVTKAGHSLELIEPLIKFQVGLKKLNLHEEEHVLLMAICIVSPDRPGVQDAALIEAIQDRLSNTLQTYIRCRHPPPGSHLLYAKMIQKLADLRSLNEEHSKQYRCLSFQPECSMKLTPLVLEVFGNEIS
Chain of UniProt Q03181 (Q03181 whole entry, looked up): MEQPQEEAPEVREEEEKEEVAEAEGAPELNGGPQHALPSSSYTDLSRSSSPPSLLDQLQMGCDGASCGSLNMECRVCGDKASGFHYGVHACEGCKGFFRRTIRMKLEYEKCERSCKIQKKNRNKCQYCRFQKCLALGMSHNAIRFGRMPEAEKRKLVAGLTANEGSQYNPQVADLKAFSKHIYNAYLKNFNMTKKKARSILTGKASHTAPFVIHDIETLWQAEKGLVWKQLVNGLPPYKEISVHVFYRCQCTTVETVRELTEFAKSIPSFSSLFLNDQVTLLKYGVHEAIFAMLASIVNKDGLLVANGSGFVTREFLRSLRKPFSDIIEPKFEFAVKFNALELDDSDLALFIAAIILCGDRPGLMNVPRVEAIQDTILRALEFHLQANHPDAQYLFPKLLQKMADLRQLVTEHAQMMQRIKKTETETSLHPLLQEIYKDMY

Compound: C=CCc1ccc(OC)cc1
- Potency [1]: inactive
- Potency [2]: inactive and inconclusive: 3.89 µM [cytotoxic, full curve]
- Potency [3]: inconclusive: 21.2 µM [cytotoxic, single point]
- Potency [4]: inconclusive: 61.7 µM [activator, single point]

Compound: Oc1c(Br)cc(Br)cc1Br
- Potency [1]: inactive
- Potency [5]: inconclusive: 0.119 µM [cytotoxic, single point]
- Potency [6]: inconclusive: 52 µM
- Potency [2]: inconclusive: 1.95 µM [cytotoxic, full curve]
- Potency [7]: inconclusive: 9.77 µM [rising, full curve, poor fit]
- Potency [8]: inactive
- Potency [9]: inconclusive: 61.8 µM [cytotoxic, partial curve, poor fit] and inconclusive: 12.3 µM [cytotoxic, partial curve, poor fit]
- Potency [4]: inconclusive: 61.8 µM [falling, single point]

Compound: S=C1NCCN1
- Potency [1]: inconclusive: 54 µM [rising, single point] and inconclusive: 49 µM [rising, single point]
- Potency [10]: inactive
- Potency [11]: inactive
- Potency [9]: inactive
- activation [4]: inconclusive: 0.0289%

Compound: C=CCC1(C(C)CC)C(=O)NC(=O)NC1=O (stereo not drawn)
- activation [12]: inconclusive: -10.7%
- Potency [13]: inactive
- Potency [4]: inactive

Compound: O=NN(c1ccccc1)c1ccccc1
- activation [12]: inconclusive: -8.01%
- Potency [4]: inactive

Compound: Clc1ccccc1N1CCNCC1
- Potency [12]: inconclusive: 33.5 µM [rising, partial curve, poor fit]
- Potency [5]: inactive
- Potency [8]: inactive
- Potency [9]: inactive
- Potency [4]: inactive

Compound: Clc1ccc(C2(Cn3cncn3)OCCO2)c(Cl)c1
- activation [12]: inconclusive: 10.9%
- Potency [4]: inactive

Compound: CC(C)(OO)c1ccccc1
- Potency [12]: inconclusive: 68.6 µM
- Potency [5]: active: 61.1 µM
- Potency [13]: active: 49 µM
- Potency [6]: inconclusive: 59.3 µM
- Potency [7]: inactive
- Potency [11]: inconclusive: 61.6 µM [fluorescent, single point]
- Potency [14]: active: 54.9 µM
- Potency [9]: inconclusive: 61.6 µM [cytotoxic, single point]
- Potency [4]: inconclusive: 61.6 µM [cytotoxic]
